Whole data set: some 4,500 sequences, median “median log2 fold change of GCK-ALFA target abundance (FLAG IP / Myc IP barcode read proportion)” near 0.078, cut for the lowest 2% near -0.6. Some of the results follow.
B1: GBRAP_128_3180 (protein)
chain: SLEEVRARTRAAMEAIAASDPETARAIAEELFDWLKTLSDEEAEAAVDEILARLPELTAEHLEILADVAREKRPTYTPEKAELVADLEVEALNLLEELEE
B2: GBRAP_43_5777 (protein)
chain: SKEIVEGALDTAKLIAEDPNIDDDTKVKAIQAAFDLAADEGYVDEELVKEVIDAANASLSAEALKKIAKHLDERAKKYPEFAEVFKKAKADVEAAIKAKE
B3: GBRAP_52_6180 (protein)
chain: MEEEIRKAIEEIYELVKAGKLEEAKKLAEELVKSLNEEELKLLVKEYGKFAEEQPLEDEDAVFETAEIIAEAIEEAGKDEALAEDLLAAAAAALYKKELE
B4: GBRAP_160_4377 (protein)
chain: SEELKKLIEEIKKLLEEFEKEAENLTPEEAKILAKGVLSEVAALVFENEEVSEETEDEIMEIIDKALAELDKLKNATPEEIVAVTKEAIEKIIELIEKEI
B5: GBRAP_160_4359 (protein)
chain: SETLERLIKEIREATEEVIKEIDKLSREEVAAVADGLFGEIAMEAVEDESMPDEVVDIIVEARDEIRKLLKEKKDASPEEIKKGIREITEKAIEKMKEAG
B6: GBRAP_166_4912 (protein)
chain: SMEEKVEKAKKEIEKLVKEMPKLDAEGQTEALIEIAEVIRELKEAGASEEEILEVLRFLAEKLKEEGLDVEHYMAIVAAAAEFDEEEMDKIDEIVEEVLK
B7: GBRAP_9_7115 (protein)
chain: MLVDPEKLKAAVEEAEKSLKEFAEDIEDEKVAEIVEKAIKEMKALTEIEGITLEELEERLDEIVDKATEEARKTVSPEIAKALEAELLTEREAILEAVEE
B8: GBRAP_160_4348 (protein)
chain: MEAAEELIEKVREATDRVIAAIDEVSVEQAAVIAAGEFGAVAMEAAEDERYSDEMVDVVVDAMDEIIAFLKANADASPEELKAGIREITDKAIERLKEIA

Molecular target: GABARAP, O95166
Sequence (O95166 whole entry, the tested form may be a part): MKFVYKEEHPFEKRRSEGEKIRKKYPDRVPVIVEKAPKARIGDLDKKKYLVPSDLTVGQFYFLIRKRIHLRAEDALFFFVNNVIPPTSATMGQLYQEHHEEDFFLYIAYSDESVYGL
Assay: median log2 fold change of GCK-ALFA target abundance (FLAG IP / Myc IP barcode read proportion) (log2 ratio); each designed protein is fused to an ALFA-tag nanobody in HEK293 cells to bring the named protein to FLAG-tagged glucokinase (GCK); Myc marks an untargeted standard; higher = target protein stabilised (more abundant)
Details: target protein: 3xFLAG-MCP-GCK-ALFA reporter; HEK293 landing pad (RPLP)
Procedure, shortened: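 The readout is target abundance, the per-binder median log2 ratio of FLAG to Myc barcode read proportions. It came from HEK293 landing-pad cells carrying a recombined ALFA-nanobody-fused binder library, induced with 2 μg mL^−1 doxycycline and transfected with a plasmid for a FLAG-tagged target and a Myc-tagged standard. After 48 h, lysates were immunoprecipitated with anti-FLAG and anti-Myc, and circular RNA barcodes were reverse transcribed, amplified and sequenced. Each barcode needed a proportion of at least 10^−7 in both replicates and each binder at least 3 barcodes per replicate, a pseudocount of 10^−6 was added, and the replicates were pooled.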

Binder	median log2 fold change
B1	0.0856
B2	0.283
B3	-0.133
B4	0.173
B5	0.141
B6	0.304
B7	0.323
B8	0.0332
